# From PubChem BioAssay (NCI)
# Where a structure was tested more than once in an assay, its records may differ in their call.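 Interpretation: 100, growth as untreated; towards 0, rising growth inhibition; 0, no net growth; 0 to -100, cell death. Compounds scoring below 10 were considered active.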 The source holds more than one record for some entries. The other results are left out here. The source may hold further records. These are repeated runs of one drug, at the concentration stated with the values; each value is one run. Marks such as (2×) stand for listed records that agree.
# Tests used:
# [1] = tested on: MCF7 breast; assay: NCI-60 one-dose screen, 48 h (100 = growth as untreated, 0 = no growth, -100 = all killed)
# [2] = tested on: HCT-116 colon; assay: as above; settings: 0.25 µM
compound,measurement,setting,value
COc1cccc2c1C(=O)c1c(O)c3c(c(O)c1C2=O)C[C@@](O)(C(=O)CO)C[C@@H]3OC1CC(N)C(O)C(C)O1 (stereo not given in full),growth,"[1]; 0.25 µM, runs of 2021","inactive: 25.1 (2×), 19.4, 26.4, 15.7 (3×), 16.5, 14, 13.6, 13.3, 13, 15.8 (2×), 15.4, 19.2, 15.5 (2×), 14.2, 18.7 (2×), 17, 14.9 (2×), 20.7, 18.3 (3×), 18, 14.1, 17.5 (2×), 16.9, 17.1, 14.6, 17.4, 20.5 (2×), 22, 22.1, 23.7, 16.8, 20.2, 13.7, 10.8, 11.8, 10.5, 19.9, 19.6% and active: 7.02%"
same,growth,"[1]; 0.25 µM, runs of 2022","active: 4.97, 5.5, 0.756, 9.53% and inactive: 16.1, 17.5, 16.6, 17.1, 22.6, 15.2, 18.3, 16.5, 34, 31.9, 33.1, 37.8, 19.9, 18.2, 14, 21.2, 18.7%"
same,growth,"[1]; 25 µM, runs of 1993","active: -27.3, -45.6, 1.53, -45.8, -39.6, -23.5, -32.4, 3.96, -37.2, -36.4 (2×), 4.05, -7.88, 4.92, -30.6, -2.04, -9.74, -27, -14.1, -1.78, -24, 1.28, -4.51, -11.6, -18, -8.31, -7.39, -19.2, -9.34, -0.413, -1.24, -2.93, -20.8, -39.1, -12.3, 0.322, -42.1, 3.54, -17.8, -39.7, -30.3, -38, -50.9, -11.8, -16, -32.2%"
same,growth,"[1]; 25 µM, runs of 1994","active: -9.6, -2.1, -56.9, 1.21, -15.3, 4.38, -9.28, 8.01, -14.1, -17.4, -20.9, -22, -9.15, -0.674, -28.2, 2.8, -3.74, -27.6, -20.8, 1.17, -69.4, 3.5, -27.5, 5.78, -31, 0.808, -9.66% and inactive: 120%, 11.7%"
same,growth,"[1]; 25 µM, runs of 1995","active: 2.81, -31.2, -15.9, -17.8, -31.5, -51.4, 1.62, 2.59, -34.3, -26.2, -65.5, -20.3 (2×), -42.2, -47.1, 1.89, 1.13, -67.5, -25, 7.02, -20.7 (3×), 2.53, -26.8 (2×), 6.21, 2.94, -19, 2.17, 4.43, -11.6, 0.505, -21.3, 1.61, -3.21, 1.47, -25.6, -24.2, -7.51, -22.7, 0.68, 3.81, 1.83, 7.2, -0.415, 5.28, 5.55, 2.54, -41.9% and inactive: 11.9%, 52.2%, 29.5%"
same,growth,"[1]; 25 µM, runs of 1996","active: -5.04 (2×), -11.1, -1.06, 3.68, -12.9, -5.2, 1.57, 3.95, 0.853, -88.3, -44, -49.2, 2.64, -5.58, -18.3, -15.2, -21.2, -3.09, -43.4, 2.97, -62.9, -71.3, -17.9, -100 (2×), -59.7, 5.57, 7.71, -2.43, -6.01, -6, -47.5, -6.91, 7.57, 6.58, -17.2, 3.56, -2.16, -23.6 (2×), -8.96, -18.7, 0.419, -25.6, -45 (2×), -66.7, 1.93, 6.2 (2×), -8.12, -28.2, 6.85, -15.7 (2×), -8.41, -23.3, -62.5, -94, 1.22, -18.1, -13.8, -16, -25.2, -13.5, -25.3, -4.38, -21, -8.42, -31.3, -40.5, 1.33, 4.07, -9.75, 7.89, 2.49, 0, -40.3, 6.64, -12.4, 2.58, -16.1, -40.1, 1.09, -38.5, -22.1, -36.7, -3.32, -45.4, -44.3, -22, 2.39, -42.3, -3.61, -4.93, 0.114, -3.5, 3.72, 7.67, -50.5, -67.7, 4.02% and inactive: 10.4, 85.5, 83.6, 11, 89.4, 12.2, 41.2, 11.1, 15.5%"
same,growth,"[1]; 25 µM, runs of 1997","active: 4.21, -27.2, 3.64, 3.87, 2.24, -33.5, 3.66, -43.7, 5.14, -8.3, -6.23, 8.92, -18.3, 5.58, -32.1, -24.7, -6.14, -27.1, -24.3, -0.972, -3.3, 0.673, 1.12, -36.6, -18, -12.3, 2.31, -9.69, -4.46, -24.5, -7.41, -44.5, -40, -21.1, -20, -3.83, 0.259, -14.1, -34.8, -4.59, -11.7, -6.49, 9.16, -2.96, -55.4, -18.2, -34.7, -53.8, -71, -26.9, -13.7, -35.4, 4.74, 6.14% and inactive: 12, 89.3, 11, 11.7, 69, 70.6, 21.7%"
same,growth,"[1]; 25 µM, runs of 1998","inactive: 91.6% and active: 2.42, -19, 1.68, -11.8, -12, -12.3, -12.5, -10.6, -54.3, -55.3, -51.1, -48.9, -62.7, -4.5, -20.5, 2.79, -17.1, -10.7, 7.14, 1.21, -33.3, 1.48, 2.98, -15.8, -11.4, -8.45, -5.34, 4, 8.57, -21.8, -38.6, 2.73, 0.562, 1.72, -25.6, 1.42, -9.36, -38.9, -19.9, -23.9, -9.78, -15, -49.6, -50.9, -44.6, -7.06, -39.1 (2×), -7.42, -46.6, -48.1, -6.53, -17.6 (2×), -31.4, -2.48, -9.18, 8.04, -6.5, -20.9, -8.74, -21.5, -31.3, -44.8, -4.84, -30.6, -20.3, -2.56, 0.37, -16.4, -6.4, -4.55%"
same,growth,"[1]; 25 µM, runs of 1999","active: -61.1, 1.67, -8.95, 0.407, -32.1, -1.17, -12.6, 6.98, -3.56, -6.86, -38.1, -15.1 (2×), -12.7, -24.7, -22.1, -3.52, 0.364, -6.49, -15.4, 5.16, 6.89, 0.863, 5.62, 6.34, 4.61, 0.617, 0.684, 1.97, 3.6, 2.54, 6.76, 6.23, 5.74, -100, 0.512, 3.07, 0.9, -64.6, -18, 6.22, 0.124, 3.87, 6.36, -0.263, -28.5, -24.6, -97.1, -79.5, 0.762, -89%"
same,growth,"[1]; 25 µM, runs of 2000","active: -100% (2×), -33.8%, 1.04%"
same,growth,[2]; runs of 2006,"inactive: 19.5%, 19.9%"
same,growth,[2]; runs of 2007,"inactive: 16.5, 35.4, 23, 22.9, 29.5 (2×), 28.1 (2×), 31.4, 28.9 (2×), 31.2, 29.6, 33.9, 30, 29.8 (2×), 31, 34.7, 26, 26.2, 18.5, 15.4, 29.1, 45.9, 25.4, 31.5, 18.9, 26.7 (2×), 41.3, 26.4, 30.8, 25.1, 25.2, 34.9% and active: 6.4%"
same,growth,[2]; runs of 2008,"inactive: 29.7, 20.1, 27.9, 24.9, 25.1, 26.5, 23.4, 27.6, 24.7, 28.9, 25.9, 34.9 (2×), 33.5, 32.7, 21.4 (2×), 22.5, 23.7, 23.9, 25.2, 19.2, 17.9, 19.1, 18, 20.3, 15.9, 96.2, 23.5, 22, 14.5, 18.9, 16.3, 14.6, 10.5, 27.5, 19.4, 28.7, 44, 37.4, 25.6, 29.1, 27.8, 25, 20.2, 17% and active: 6.77, -2.31, 8.2, 2.33, 3.57, -21.3, -17.4, 2.15, -1.52%"
same,growth,[2]; runs of 2009,"inactive: 20.1 (2×), 16.9, 25.7, 25.6, 23.4 (3×), 31.2, 25.5, 23.8, 24 (3×), 27, 26.2, 17.6, 22, 17.8 (2×), 20.3, 19.8 (2×), 20.8, 21.1, 21.9, 18, 18.2, 23.2 (2×), 16.5, 20.7 (3×), 32.4, 20.4 (3×), 30.3, 15.8, 24.6, 21, 14.9, 13.3, 19.5, 12.6, 19.3, 23, 16.2, 17.4, 16.4, 16, 21.5, 22.4, 14.1, 19.2, 22.1, 24.5, 23.3, 25.8, 21.2, 25, 21.6, 26.7, 21.7, 27.1% and active: 7.81, 9.86, 9.74, 8.55%"
same,growth,[2]; runs of 2010,"inactive: 30.9, 24.6, 27.4, 26.1 (3×), 24.8, 33.6, 32, 28.1 (3×), 31.2, 27.8 (2×), 23.9 (2×), 29.6 (2×), 37, 17.5, 23.5, 27 (2×), 12.3, 28.7, 18.5, 20.5, 27.5, 15.7, 30.6, 23.7, 26.5, 25.8, 25.5, 25.2, 27.1 (2×), 31.5, 31.4, 32.1, 30.8, 30.3, 28.4, 31.1, 26.4, 29.7, 31.7%"
